Test results from the supplement of paper PMC10338343.
± gives the standard deviation. Only a part is listed here, and it is no random draw.

tested on: MIWI (PIWIL1) piRISC loaded with piRNA #1 (30 nt); test: pre-steady-state target cleavage rate (min^-1); MIWI and MILI are mouse PIWI proteins and EfPiwi is from a freshwater sponge; tags in brackets are library labels; higher = faster piRNA-guided slicing of the target; settings: guide: piRNA #1 5'p-UGAGGUAGUAGGUUGUAUAGUAUCCAGAGG; auxiliary factor: 500 nM mouse GTSF1
Method in brief: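 The pre-steady-state cleavage rate was derived from a burst-and-steady-state fit of Cleave-'n-Seq data. For these assays, 1 nM active affinity-purified piRISC loaded with a single synthetic guide was mixed with […] a transcribed, DNA-blocked target RNA library in HEPES–potassium acetate buffer at 33 °C, with or without 500 nM GTSF1 partner protein, for 0–8 or 0–960 min. Sequencing counts of uncleaved targets were normalised to depth and to weakly complementary targets, and k3 was capped at 0.0001 min^-1 after three trials were pooled.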
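Note: 1 nM active piRISC with 0.1 nM target library at 33 °C single turnover.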

Sequence | pre-steady-state target cleavage rate
GGAGAGCUAACUAUACAACCUACUACCUCA | 1.33 ± 0.095
GGAGACCUAUGAUAUGUUGGUACUUCCUCA | < 0.0001
GGAGUGGAUACUAUACAACCUACUAGCUCA | 0.067 ± 0.013
GGAGACCAUACAAUUCAACCUACUACCUCA | 0.0717 ± 0.013
GGAGACCUAUGAUAUGUACCUACUACCCCA | < 0.0001
GGAGUGGAUACUAGACAACCUACUACCUCA | 1.61 ± 0.086
GGUCUGGAUACUAAUGAACCUACUACCUCA | 0.173 ± 0.036
GGAGACCAUACUAUACAACCUACUAACUCA | 1.01 ± 0.067
GGAGACCUAUGAAUACAACCUACUUGGUCA | < 0.0001
GGAGACCUAACUUUACAACCUUCUACCUCA | 0.0831 ± 0.027
GGAGUCGAUACUAUACAACCUACUACGUCA | 0.911 ± 0.074
GGUCUGGAUACUAUACAUCCUAGUACCUCA | 0.24 ± 0.04
CCUCUGGAUACUUUACAACCUACUUCCUCA | 0.372 ± 0.042
CCUCUGGAUACUAUACUACCUUCUACCUCA | 0.281 ± 0.024
CGUGUGGAUACUAUACAACCUACUACCUCA | 0.694 ± 0.033
GGAGAGGAUACUAAACAACCUACUACCUGA | 0.24 ± 0.031
GCUCUGGAUACUAUACACCCUACUACCUCA | 1.74 ± 0.11
GCUCUGGAUACUAUACAACCUACUACCUUA | 1.73 ± 0.11
CCUCUGGAUACUAUACAACCUACUUCCUGA | 0.259 ± 0.04
GGAGACCAACUAUACAACCUACUACCUCA | 1.65 ± 0.13

Sequence | pre-steady-state target cleavage rate
GGAGACGAUACUAUUCAACCUACUAGCUCA | 0.248 ± 0.029
GGAGACCUAUCUAUACAACCCACUACCUCA | 0.267 ± 0.022
GCUGAGGAUACUAUACAACCUACUACCUCA | 1.28 ± 0.059
GGAGAGGAUAGAAUACAACCUACUACCUCA | 0.453 ± 0.042
GGACUGGAUACUUAUACAACCUACUACCUCA | 1.43 ± 0.12
GGAGACCUUACUAUACUACCUACUUCCUCA | 0.0648 ± 0.013
GGAGACCUUAGUAUACAUCCUACUACCUCA | 0.152 ± 0.021
GGUCUGGAUACUAUUCAACCUACUAGCUCA | 0.0661 ± 0.014
CCUCUGGAUACUAUUCAACCUACUACGUCA | 1.7 ± 0.1
GGACUGGAUACUAUACAACGUACUAGCUCA | 0.0513 ± 0.014
GGAGACCUAUCUAUAGAACCUACUACGUCA | 0.342 ± 0.05
GGUCUGGAUACUUUACAACCUACUACGUCA | 0.238 ± 0.035
GGACUGGAUAGUAUACAACCUAGUACCUCA | 0.483 ± 0.056
GGAGACCUAUGUAUACAACCUACUACCUCG [g2:g19:cont:t1G] | 0.224 ± 0.026
GGAGACCUAUGAUAAAAACCUACUACCUCA | < 0.0001
GGAGUGGAUACUUUACAACCUACUAGCUCA | 0.014 ± 0.0035
GGAGUGGAUACUAUACAACCUAGUACGUCA | 0.00325 ± 0.0019
GGAGACCUAACUAUACAACCUACAUCCUCA | 0.243 ± 0.026
GGACAGGAUACUAUACAACCUACUACGUCA | 0.643 ± 0.057
CCUCUGGAUACUAAUGAACCUACUACCUCA | 0.702 ± 0.086
